Some of the results follow.
Tests used:
Experiment in all cases: glycan array binding signal (z-score within array); higher = stronger binding
Settings in all cases: glycan notation: IUPAC condensed, linker removed
Glc(b1-4)Glc = target: Glc(b1-4)Glc
Summary of the method: (§1)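 Glycan array data came from 3228 arrays in the Consortium for Functional Glycomics database, and only arrays with an available protein sequence were kept. Glycan names were put into IUPAC-condensed notation, and columns mapping to the same glycan were averaged. The binding signal is a within-array Z-score, averaged across arrays of one protein sequence run at different concentrations or buffers and across linkers. A negative Z-score can be read as non-binding.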

Glc(b1-6)Glc = target: Glc(b1-6)Glc
Summary of the method: as §1

GlcA(b1-3)Gal = target: GlcA(b1-3)Gal
Summary of the method: as §1

GlcA(b1-3)GlcNAc = target: GlcA(b1-3)GlcNAc
Summary of the method: as §1

GlcA(b1-6)Gal = target: GlcA(b1-6)Gal
Summary of the method: as §1

[1] = target: GlcA3S(b1-3)Gal(b1-4)GlcNAc(b1-2)Man
Summary of the method: as §1

[2] = target: GlcA3S(b1-3)Gal(b1-4)GlcNAc(b1-3)Gal(b1-4)Glc
Summary of the method: as §1

[3] = target: GlcNAc(a1-3)Gal(b1-4)GlcNAc
Summary of the method: as §1

[4] = target: GlcNAc(a1-4)Gal(b1-3)GlcNAc
Summary of the method: as §1

[5] = target: GlcNAc(a1-4)Gal(b1-4)GalNAc
Summary of the method: as §1

[6] = target: GlcNAc(a1-4)Gal(b1-4)GlcNAc
Summary of the method: as §1

[7] = target: GlcNAc(a1-4)Gal(b1-4)GlcNAc(b1-3)Gal(b1-4)Glc
Summary of the method: as §1

[8] = target: GlcNAc(a1-4)Gal(b1-4)GlcNAc(b1-3)Gal(b1-4)GlcNAc
Summary of the method: as §1

[9] = target: GlcNAc(a1-4)Gal(b1-4)GlcNAc(b1-3)Gal(b1-4)GlcNAc(b1-3)Gal(b1-4)GlcNAc
Summary of the method: as §1

[10] = target: GlcNAc(a1-4)Gal(b1-4)GlcNAc(b1-3)Gal(b1-4)[Fuc(a1-3)]GlcNAc(b1-3)Gal(b1-4)[Fuc(a1-3)]GlcNAc
Summary of the method: as §1

[11] = target: GlcNAc(a1-6)Gal(b1-4)GlcNAc
Summary of the method: as §1

[12] = target: GlcNAc(b1-2)Gal(b1-3)GalNAc
Summary of the method: as §1

[13] = target: GlcNAc(b1-2)Man(a1-3)[GlcNAc(b1-2)Man(a1-6)]Man(b1-4)GlcNAc(b1-4)GlcNAc
Summary of the method: as §1

[14] = target: GlcNAc(b1-2)Man(a1-3)[GlcNAc(b1-2)Man(a1-6)]Man(b1-4)GlcNAc(b1-4)[Fuc(a1-6)]GlcNAc
Summary of the method: as §1

[15] = target: GlcNAc(b1-2)Man(a1-3)[GlcNAc(b1-4)][GlcNAc(b1-2)Man(a1-6)]Man(b1-4)GlcNAc(b1-4)GlcNAc
Summary of the method: as §1

[16] = target: GlcNAc(b1-2)Man(a1-3)[GlcNAc(b1-4)][GlcNAc(b1-2)Man(a1-6)]Man(b1-4)GlcNAc(b1-4)[Fuc(a1-6)]GlcNAc
Summary of the method: as §1

[17] = target: GlcNAc(b1-2)[GlcNAc(b1-4)]Man(a1-3)[GlcNAc(b1-2)Man(a1-6)]Man(b1-4)GlcNAc(b1-4)GlcNAc
Summary of the method: as §1

[18] = target: GlcNAc(b1-2)[GlcNAc(b1-4)]Man(a1-3)[GlcNAc(b1-4)][GlcNAc(b1-2)Man(a1-6)]Man(b1-4)GlcNAc(b1-4)GlcNAc
Summary of the method: as §1

[19] = target: GlcNAc(b1-2)[GlcNAc(b1-4)]Man(a1-3)[GlcNAc(b1-4)][GlcNAc(b1-2)[GlcNAc(b1-6)]Man(a1-6)]Man(b1-4)GlcNAc(b1-4)GlcNAc
Summary of the method: as §1

[20] = target: GlcNAc(b1-2)[GlcNAc(b1-4)]Man(a1-3)[GlcNAc(b1-4)][GlcNAc(b1-2)[GlcNAc(b1-6)]Man(a1-6)]Man(b1-4)GlcNAc(b1-4)[Fuc(a1-6)]GlcNAc
Summary of the method: as §1

[21] = target: GlcNAc(b1-2)[GlcNAc(b1-6)]Man(a1-6)[GlcNAc(b1-2)Man(a1-3)]Man(b1-4)GlcNAc(b1-4)GlcNAc
Summary of the method: as §1

[22] = target: GlcNAc(b1-2)[GlcNAc(b1-6)]Man(a1-6)[GlcNAc(b1-2)Man(a1-3)]Man(b1-4)GlcNAc(b1-4)[Fuc(a1-6)]GlcNAc
Summary of the method: as §1

[23] = target: GlcNAc(b1-2)[GlcNAc(b1-6)]Man(a1-6)[GlcNAc(b1-4)][GlcNAc(b1-2)Man(a1-3)]Man(b1-4)GlcNAc(b1-4)GlcNAc
Summary of the method: as §1

GlcNAc(b1-3)Fuc = target: GlcNAc(b1-3)Fuc
Summary of the method: as §1

GlcNAc(b1-3)Gal = target: GlcNAc(b1-3)Gal
Summary of the method: as §1

[24] = target: GlcNAc(b1-3)Gal(b1-3)GalNAc
Summary of the method: as §1

GlcNAc(b1-3)Gal(b1-4)Glc = target: GlcNAc(b1-3)Gal(b1-4)Glc
Summary of the method: as §1

[25] = target: GlcNAc(b1-3)Gal(b1-4)GlcNAc
Summary of the method: as §1

[26] = target: GlcNAc(b1-3)Gal(b1-4)GlcNAc(b1-2)Man(a1-3)[GlcNAc(b1-3)Gal(b1-4)GlcNAc(b1-2)Man(a1-6)]Man(b1-4)GlcNAc(b1-4)GlcNAc
Summary of the method: as §1

[27] = target: GlcNAc(b1-3)Gal(b1-4)GlcNAc(b1-2)Man(a1-3)[GlcNAc(b1-3)Gal(b1-4)GlcNAc(b1-2)Man(a1-6)]Man(b1-4)GlcNAc(b1-4)[Fuc(a1-6)]GlcNAc
Summary of the method: as §1

[28] = target: GlcNAc(b1-3)Gal(b1-4)GlcNAc(b1-2)[GlcNAc(b1-3)Gal(b1-4)GlcNAc(b1-6)]Man(a1-6)[GlcNAc(b1-3)Gal(b1-4)GlcNAc(b1-2)Man(a1-3)]Man(b1-4)GlcNAc(b1-4)GlcNAc
Summary of the method: as §1

[29] = target: GlcNAc(b1-3)Gal(b1-4)GlcNAc(b1-3)Gal(b1-4)GlcNAc
Summary of the method: as §1

[30] = target: GlcNAc(b1-3)Gal(b1-4)GlcNAc(b1-3)Gal(b1-4)GlcNAc(b1-2)Man(a1-3)[GlcNAc(b1-3)Gal(b1-4)GlcNAc(b1-3)Gal(b1-4)GlcNAc(b1-2)Man(a1-6)]Man(b1-4)GlcNAc(b1-4)GlcNAc
Summary of the method: as §1

[31] = target: GlcNAc(b1-3)Gal(b1-4)GlcNAc(b1-3)Gal(b1-4)GlcNAc(b1-2)Man(a1-3)[GlcNAc(b1-3)Gal(b1-4)GlcNAc(b1-3)Gal(b1-4)GlcNAc(b1-2)Man(a1-6)]Man(b1-4)GlcNAc(b1-4)[Fuc(a1-6)]GlcNAc
Summary of the method: as §1

[32] = target: GlcNAc(b1-3)Gal(b1-4)GlcNAc(b1-3)Gal(b1-4)GlcNAc(b1-2)[GlcNAc(b1-3)Gal(b1-4)GlcNAc(b1-3)Gal(b1-4)GlcNAc(b1-6)]Man(a1-6)[GlcNAc(b1-3)Gal(b1-4)GlcNAc(b1-3)Gal(b1-4)GlcNAc(b1-2)Man(a1-3)]Man(b1-4)GlcNAc(b1-4)[Fuc(a1-6)]GlcNAc
Summary of the method: as §1

[33] = target: GlcNAc(b1-3)Gal(b1-4)GlcNAc(b1-3)Gal(b1-4)GlcNAc(b1-3)Gal(b1-4)GlcNAc(b1-2)Man(a1-3)[GlcNAc(b1-3)Gal(b1-4)GlcNAc(b1-3)Gal(b1-4)GlcNAc(b1-3)Gal(b1-4)GlcNAc(b1-2)Man(a1-6)]Man(b1-4)GlcNAc(b1-4)GlcNAc
Summary of the method: as §1

[34] = target: GlcNAc(b1-3)Gal(b1-4)GlcNAc(b1-3)Gal(b1-4)GlcNAc(b1-3)Gal(b1-4)GlcNAc(b1-2)Man(a1-3)[GlcNAc(b1-3)Gal(b1-4)GlcNAc(b1-3)Gal(b1-4)GlcNAc(b1-3)Gal(b1-4)GlcNAc(b1-2)Man(a1-6)]Man(b1-4)GlcNAc(b1-4)[Fuc(a1-6)]GlcNAc
Summary of the method: as §1

[35] = target: GlcNAc(b1-3)Gal(b1-4)GlcNAc(b1-3)Gal(b1-4)GlcNAc(b1-3)Gal(b1-4)GlcNAc(b1-2)[GlcNAc(b1-3)Gal(b1-4)GlcNAc(b1-3)Gal(b1-4)GlcNAc(b1-3)Gal(b1-4)GlcNAc(b1-6)]Man(a1-6)[GlcNAc(b1-3)Gal(b1-4)GlcNAc(b1-3)Gal(b1-4)GlcNAc(b1-3)Gal(b1-4)GlcNAc(b1-2)Man(a1-3)]Man(b1-4)GlcNAc(b1-4)[Fuc(a1-6)]GlcNAc
Summary of the method: as §1

[36] = target: GlcNAc(b1-3)Gal(b1-4)GlcNAc(b1-3)Gal(b1-4)GlcNAc(b1-3)Gal(b1-4)GlcNAc(b1-3)Gal(b1-4)GlcNAc(b1-2)Man(a1-3)[GlcNAc(b1-3)Gal(b1-4)GlcNAc(b1-3)Gal(b1-4)GlcNAc(b1-3)Gal(b1-4)GlcNAc(b1-3)Gal(b1-4)GlcNAc(b1-2)Man(a1-6)]Man(b1-4)GlcNAc(b1-4)GlcNAc
Summary of the method: as §1

[37] = target: GlcNAc(b1-3)Gal(b1-4)GlcNAc(b1-3)Gal(b1-4)GlcNAc(b1-3)Gal(b1-4)GlcNAc(b1-3)Gal(b1-4)GlcNAc(b1-2)Man(a1-3)[GlcNAc(b1-3)Gal(b1-4)GlcNAc(b1-3)Gal(b1-4)GlcNAc(b1-3)Gal(b1-4)GlcNAc(b1-3)Gal(b1-4)GlcNAc(b1-2)Man(a1-6)]Man(b1-4)GlcNAc(b1-4)[Fuc(a1-6)]GlcNAc
Summary of the method: as §1

B1: Dectin2 (Homo sapiens), Q6EIG7 (protein)
chain: MMQEQQPQSTEKRGWLSLRLWSVAGISIALLSACFIVSCVVTYHFTYGETGKRLSELHSYHSSLTCFSEGTKVPAWGCCPASWKSFGSSCYFISSEEKVWSKSEQNCVEMGAHLVVFNTEAEQNFIVQQLNESFSYFLGLSDPQGNNNWQWIDKTPYEKNVRFWHLGEPNHSAEQCASIVFWKPTGWGWNDVICETRRNSICEMNKIYL
In the case of B1, the “glycan array binding signal (z-score)” value (Glc(b1-4)Glc) is reported as -0.067, the “glycan array binding signal (z-score)” value (Glc(b1-6)Glc) is reported as -0.072 and the “glycan array binding signal (z-score)” value (GlcA(b1-3)Gal) is reported as -0.166. For the same binder, the “glycan array binding signal (z-score)” value (GlcA(b1-3)GlcNAc) was -0.186, the “glycan array binding signal (z-score)” value (GlcA(b1-6)Gal) was -0.142 and the “glycan array binding signal (z-score)” value [1] was -0.186. The “glycan array binding signal (z-score)” value [2] was -0.198, the “glycan array binding signal (z-score)” value [3] was -0.186 and the “glycan array binding signal (z-score)” value [4] was -0.19. The “glycan array binding signal (z-score)” value [5] was -0.154, the “glycan array binding signal (z-score)” value [6] was -0.173 and the “glycan array binding signal (z-score)” value [7] was -0.198. For the same binder, the “glycan array binding signal (z-score)” value [8] was -0.165, the “glycan array binding signal (z-score)” value [9] was -0.198 and the “glycan array binding signal (z-score)” value [10] was -0.102. For the same binder, the “glycan array binding signal (z-score)” value [11] was -0.204, the “glycan array binding signal (z-score)” value [12] was -0.189 and the “glycan array binding signal (z-score)” value [13] was -0.118. For the same binder, the “glycan array binding signal (z-score)” value [14] was -0.008, the “glycan array binding signal (z-score)” value [15] was -0.143 and the “glycan array binding signal (z-score)” value [16] was -0.195. For the same binder, the “glycan array binding signal (z-score)” value [17] was -0.187, the “glycan array binding signal (z-score)” value [18] was -0.198 and the “glycan array binding signal (z-score)” value [19] was -0.2. The “glycan array binding signal (z-score)” value [20] was -0.184, the “glycan array binding signal (z-score)” value [21] was -0.15 and the “glycan array binding signal (z-score)” value [22] was -0.01. The “glycan array binding signal (z-score)” value [23] was -0.2, the “glycan array binding signal (z-score)” value (GlcNAc(b1-3)Fuc) was -0.122 and the “glycan array binding signal (z-score)” value (GlcNAc(b1-3)Gal) was -0.122. For the same binder, the “glycan array binding signal (z-score)” value [24] was -0.16, the “glycan array binding signal (z-score)” value (GlcNAc(b1-3)Gal(b1-4)Glc) was -0.166 and the “glycan array binding signal (z-score)” value [25] was -0.189. For the same binder, the “glycan array binding signal (z-score)” value [26] was -0.138, the “glycan array binding signal (z-score)” value [27] was -0.001 and the “glycan array binding signal (z-score)” value [28] was 0.193. For the same binder, the “glycan array binding signal (z-score)” value [29] was -0.204, the “glycan array binding signal (z-score)” value [30] was 0.249 and the “glycan array binding signal (z-score)” value [31] was 0.049. For the same binder, the “glycan array binding signal (z-score)” value [32] was 0.131, the “glycan array binding signal (z-score)” value [33] was -0.049 and the “glycan array binding signal (z-score)” value [34] was 0.028. For the same binder, the “glycan array binding signal (z-score)” value [35] was 0.209, the “glycan array binding signal (z-score)” value [36] was -0.038 and the “glycan array binding signal (z-score)” value [37] was -0.079.

Source: the supplement of paper PMC8728848
